Assay results published in PubChem BioAssay AID493208 (National Center for Advancing Translational Sciences (NCATS), 2011).
The whole screen tested about 44,000 compounds, of which about 340 (0.77%) were called active. Roughly 5% stayed inconclusive and do not appear here. Calls follow the shape of the dose curve; as a rule, active = well fitted inhibition curve with a large enough effect; inconclusive = small, poorly fitted or top-dose-only effect; inactive = flat fitted curve, though single readings scatter. Some of the results follow.

assay: Acumen qHTS Assay for Inhibitors of the mTORC1 Signaling Pathway in MEF (Tsc2-/-, p53-/-) Cells: Sytravon; conditions: phospho-rpS6 immunofluorescence/PI, 24 h; series mostly up to 38.3 µM; activity change, negative = inhibition: at the top concentration;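 also: plate controls were DMSO for no effect and rapamycin for full effect; nearly all actives have a fitted effect of over 50% in size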
How it was run: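 Tsc2-/-, p53-/- MEFs (empty-vector stable line) in DMEM + 10% FBS were treated with compounds 24 h at 37 degree Celsius, fixed, and immunostained for phospho-rpS6 (Alexa-488) with propidium iodide counterstain. Laser-scanning cytometry gave % positive cells, normalized against 7.5 nM rapamycin and DMSO.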

Activity change, negative = inhibition, inactive:
Cc1nn(C(=O)COc2ccc(Cl)cc2)c(C)c1Sc1ccccc1 -18.7%
CCOC(=O)c1ccc(NC(=O)CC2C(=O)N(c3ccccc3)C(=O)N2Cc2ccc(C)cc2)cc1 (configuration not stated) 3.91%
COc1ccc(CCNC(=O)CCCn2c(=O)c3ccccc3n(CC(=O)Nc3cccc(C)c3)c2=O)cc1OC 0.312%
COc1ccc(C(=O)Nc2cnc3ccccn3c2=O)cc1 3.91%
CCOc1ccc(Nc2oc(-c3ccc(COc4ccc(OC)cc4)o3)nc2C#N)cc1 -6.83%
CCOC(=O)C1CCN(c2cc3c(cc2NC(=O)c2ccc(Cl)cc2)n(C)c(=O)n3C)CC1 1.98%
Cc1cc(Nc2ccccc2F)n2nc(-c3ccccc3)nc2n1 -1.46%
COc1ccc(S(=O)(=O)NCc2ccc3c(c2)CCN3C(=O)c2ccccc2)cc1OC 0.236%
COC(=O)c1ccc(Cl)cc1NC(=O)N1CC2CCCN2c2ccccc21 (configuration not stated) -8.15%
COc1ccc(NC(=O)CN2C(=O)CCn3nc(-c4cccn4C)cc32)cc1 0.563%
Cc1cc(C)c(Nc2nc3ccccc3n3c(C)nnc23)c(C)c1 -1.43%
Cc1ccc(NC(=O)C(=O)NCC(c2cccnc2)N2CCN(Cc3ccccc3)CC2)cc1C (configuration not stated) 5.35%
CCN(CC)C(=O)Cn1c(=O)cc(C)c2c(C)nn(-c3cccc(Cl)c3C)c21 -12.1%
COc1cccc(CNC(=O)C2CCC(CNS(=O)(=O)c3ccc4c(c3)CCCC(=O)N4)CC2)c1 (configuration not stated) 1.41%
Cc1ccc(NC(=O)CSc2nnc3scc(-c4ccc(Cl)cc4)n23)cc1 1.92%
CCN(CC)CCCNc1oc(/C=C/c2ccc(OC)c(OC)c2)nc1C#N -5.43%
COc1ccc(NC(=O)Cn2cc(S(=O)(=O)N3CCN(c4ccccc4F)CC3)c3ccccc3c2=O)cc1Cl 0.667%
CCOC(=O)C1=C(CN2CCN(c3ccc(OC)cc3)CC2)NC(=O)NC1c1ccc(OC)cc1 (configuration not stated) -3.1%
CNc1c(NC(=O)c2ccc(OC)c(OC)c2)c(=O)oc2ccccc12 -0.266%
CCOc1ccc(-c2cc(C(=O)N3CCN(c4cc(Cl)ccc4C)CC3)c3ccccc3n2)cc1 7.7%
Cc1cc(C)cc(NC(=O)NCCc2c(C)nn(C)c2C)c1 0%
Cc1cc2c(cc1S(=O)(=O)CCC(=O)N1CCC(C)CC1)OCC(=O)N2 -21.3%
Cc1nc(N2CCCC2)c2c(C(=O)N3CCN(c4ccccc4)CC3)c(C)oc2n1 5.84%
CCC(Cn1nnc2ccccc2c1=O)NC(=O)Nc1cc(C)cc(C)c1 (configuration not stated) 1.89%
CC(C)C(=O)Nc1nnc2n1CCS2 -6.23%
CCOc1ccc(CNC(=O)c2cccc(NC(=O)N3CCSc4ncccc43)c2)cc1OC -3.88%
CCc1ccc(C(=O)c2cn(CC(=O)Nc3ccc(Cl)cc3)c3cc4c(cc3c2=O)OCO4)cc1 1.67%
CCOc1cc2sc(N3CCC(C(=O)Nc4ccc(CC)cc4)CC3)nc2cc1Br 0.695%
CC(=O)N1CCCc2cc(S(=O)(=O)N3CCCC(C(=O)N4CCN(c5cccc(Cl)c5)CC4)C3)ccc21 (configuration not stated) 0.307%
Cc1ccc(S(=O)(=O)n2nc(C)c(S(=O)(=O)N3CCCCCC3)c2C)cc1 5.59%
Cc1ccc(C)c(CSc2nnc3[nH]c(=O)cc(C)n23)c1 -0.363%
COc1ccc(C)cc1NC(=O)c1noc2c1CSc1ccccc1-2 1.58%
COc1ccc(C2C(C(=O)Nc3ccccc3)=C(C)Nc3c(C(=O)Nc4ccccc4)cnn32)cc1 (configuration not stated) 1.59%
COCCNC(=O)CCC(=O)NNc1nc2ccccc2c2nc(C)nn12 -7.57%
CS(=O)(=O)N1CCc2cc(C(=O)N3CCN(c4cccc(Cl)c4)CC3)ccc21 -4.61%
Cc1ccc(NC(=O)C2(c3cccs3)CCOCC2)cc1Cl -3.86%
COc1ccc(Br)cc1C1C(C(=O)Nc2ccc(C)cc2C)=C(C)Nc2ncnn21 (configuration not stated) -11.5%
Cc1ccc(C)c(N2CCN(C(=O)c3cn(CC(C)C)c(=O)c4c3c3ccccc3n4C)CC2)c1 -1.96%
COCCCNc1nc(NCc2ccccc2OC)c2cnn(C)c2n1 0%
Cc1ccc(C)c(CSc2nc(-c3ccccc3F)nc3c2Cc2c(CO)cnc(C)c2O3)c1 3.98%
COc1ccc(NC(=O)Cn2c(=O)n(-c3cc(C)cc(C)c3)c(=O)c3oc4ccccc4c32)cc1OC -2.42%
COc1cccc(NC(=O)Cn2nnc(C(=O)NCc3cccs3)c2N)c1 -6.66%
O=C(NCCc1ccccc1)c1nn(-c2ccccc2F)nc1CO -3.72%
Cc1ccc2c(CNCCc3ccccc3)c(C(=O)O)n(Cc3ccccc3C)c2c1 0.143%
CCOc1ccc(C(=O)Cn2c(=O)n3nc(CCn4nc(C)cc4C)nc3c3cc(OC)c(OC)cc32)cc1 0.998%
Cc1cccc(N(C)c2nc3ccccc3c3nnc(C)n23)c1 -2.37%
COc1cc(NC(=O)c2cc(C3CC3)nc3c2c(C)nn3-c2ccccc2)cc(OC)c1 2.09%
COC(=O)Cn1c(=O)c2cccn2c2ccc(F)cc21 -11.5%
Cc1ccccc1N1CCN(S(=O)(=O)c2nnc(NC(=O)c3ccc(C(C)C)cc3)s2)CC1 4.02%
CCCCCn1c(NCc2ccc(OC)cc2)nc2ccccc21 -8.67%
Cc1ccc(NC(=O)CSc2nnc(-c3ccc([N+](=O)[O-])cc3)o2)c(C)c1 -7.07%
Cc1ccc(C(=O)c2cn(CC(=O)Nc3ccc(C(C)C)cc3)c3nc(C)ccc3c2=O)cc1 0%
CCS(=O)(=O)N1CCCC(C(=O)NCCOC)C1 (configuration not stated) 0.94%
COc1ccc(-n2nc(C(=O)Nc3ccccn3)c3c4ccccc4n(C)c3c2=O)cc1 -9.25%
COc1ccccc1OC(C)C(=O)Nc1cccc(-c2nc3ccccc3s2)c1 (configuration not stated) 0%
CCOC(=O)c1ccc(NC(=O)c2cnc3c(-c4ccc(F)cc4)c(C)nn3c2C)cc1 -1.35%
Cc1cc(C)n(-c2nc3ccccc3nc2Nc2ccc(N(C)C)cc2)n1 -1.82%
CCOc1ccc(-c2nc3c(c(SCC(=O)Nc4ccccc4C)n2)Cc2ccccc2O3)cc1 1.41%
Cc1cc(C)cc(NC(=O)Cn2c(-c3cncs3)nc3ccccc32)c1 4.04%
CN(C)c1ccc(CNC(=O)c2ccc(Cn3c(SCc4ccccc4)nc4cccnc43)cc2)cc1 -6.51%
Cc1ccccc1CNC(=O)c1ccc2c(c1)c(C)c(C)n2C 6.89%
CCc1ccc(CNC(=O)c2cnc3sc(N4CCCC4)nn3c2=O)cc1 -0.158%
